± gives the standard deviation of the averaged measurements. This is one part of the list.
system: PfAP2-G AP2 domain (GST-tagged); experiment: gcPBM binding intensity (ln(normalized median fluorescence intensity)); higher = stronger DNA binding
In short: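 DNA-binding domains from P. falciparum, fused to GST and produced in E. coli, were put on an Agilent 4 × 180k double-stranded probe array for 1 h in 1× PBS holding 1% milk, 0.2 mg/ml BSA, 0.5% salmon testes DNA and 0.03% Triton X-100. Probes were primer-extended, 36 bp long and drawn from intergenic genomic regions, with negative controls included. After Alexa488 anti-GST antibody detection and a 488 nm scan, binding intensity was set as the highest Masliner-normalised natural-log median intensity across replicate spots of either probe orientation.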

Sequence | gcPBM binding intensity (ln)
TTCCCAACATGATATTGTACATTTAATTATAATTAA [XGTACX_site7029] | 11 ± 0.62
TATTTTTGGTTATGTGTGCACTATGAACAACAAAAT | 10.9 ± 0.57
TATATTAAAAAAAAATGTACACATATATATATATAT [XGTACX_site4524] | 11.5 ± 1.1
ATATTATTAATTTGTTGTACAGTTCTTTATTTATAG [XGTACX_site7932] | 11.4 ± 0.83
TATATGTTTGAATATACACACAACATATATATATAT [CACACA_site4066] | 10.2 ± 0.65
CCAGGAAAAATTTATTGTACATATATTTTTATGCTC [XGTACX_site7154] | 11.1 ± 0.64
TATTTTTAACAGTGCACACATAACTTAATTATATGT [CACACA_site2194] | 10.5 ± 0.28
ATTTTCCATATATTTTGTACATATGTATATTTTCCC [XGTACX_site7795] | 10.8 ± 0.25
AAATATAAATGGTAATACACATACACACACACATAC [XGTACX_negctrl_site459] | 10.6 ± 0.44
TATAAAAAATTATGTTGTACGTAATATAAAATTTGT [XGTACX_site7122] | 11.4 ± 0.86
AATCAAAATAAATTAACACACAATTTTAATATTGTT [CACACA_site10] | 9.62 ± 0.15
GTGCATAAATCATACACACACACATATATATATATA [CACACA_site2423] | 10.2 ± 0.37
GAAAGAAAATATTAAGTGCATATTTTAATGATACAA [GTGCAC_site9712] | 9.955 ± 0.021
ATAAAAATAAAAAAAACACACATACCTTATTTTTGT [CACACA_site5452] | 9.86 ± 0.21
GTATAAAAGTAACTAGTGCATTACATATGAATAAAA | 10.2 ± 0.15
CCTTGCCCCAGGAGTTCACACACATAATAGATTGTC [CACACA_site8138] | 10.14 ± 0.064
TCGAACGTATCATGTGTACACACAAATTGTTTTTTT [CACACA_site8623] | 11.6 ± 0.86
TTTTTATTTTAAAAGAATAATTATCTAATATCTATA [CACACA_negctrl_site371] | 9.67 ± 0.16
AGATATTTTTCTTAAGTACACACTAATTAGAAACTA [CACACA_site7897] | 11.3 ± 0.93
AAGGAATAATAATAAATGTAAAGAAAAGCATACTGA [CACACA_negctrl_site36] | 9.89
AAATACCTTATATATACACACTATGTTTTTCTTTTT [CACACA_site4792] | 9.895 ± 0.007
AACACGCACAGACACACACACAAAAATGATTAAAAA [CACACA_site7195] | 10.6 ± 0.67

Sequence | gcPBM binding intensity (ln)
GACACCTGCATGAAAGTGCAAAATAGAAAAGGAACA [GTGCAC_site9593] | 10.1 ± 0.12
TTACCTCTTTGAAATATACACACTAAACATATCAAC [CACACA_site2455] | 10.1 ± 0.13
TCAAATTATTAAAATACACACATATTATATATATAT [CACACA_site2530] | 9.9 ± 0.099
AGCAATTTGGGGTGTACACACACCTTATTTAAATTA [CACACA_site1157] | 11.6 ± 0.83
AAAAGAAGAAACAAAACACACACAGTCTTCTTTTCT [CACACA_site9015] | 9.9 ± 0.16
TTTATGAGGTTACTATGTACGCAAATTATGTAATAA [XGTACX_site325] | 11.5 ± 1.1
ATTTGTGTTATTCGAAGTACGGATCATTTGAAATAA [XGTACX_site2510] | 10.9 ± 0.59
TATTAAAAATACATATGTACTCATAGCATAAAACAT [XGTACX_site8686] | 11.5 ± 0.98
TTTAGCCAATTTTTAAAGTTTAAAAAAGAAAAAAGA [CACACA_negctrl_site118] | 9.96 ± 0.5
CAAATATATATTTTCTGTACAAATACAATTAATACT [XGTACX_site2694] | 10.8 ± 0.36
CCTTCAATTTACATAACACACATTTAACCATAATAA [CACACA_site2394] | 10.2 ± 0.25
CAAATGTAGAAAATGTGTACATAAAAAAAAAAAAAA [XGTACX_site8276] | 11.5 ± 1.2
AGTCAATTTTGTGTGTCAACATTTATATAAAGAATG [TGCATGCA_negctrl_site400] | 10.4 ± 0.29
TGTGAAAATTATGGGGCATGCAATACTTTAAAAATA [TGCATGCA_site653] | 10.3 ± 0.42
TTTTGGCTGATCAGATTTAACAAAAAAAAAAAAAAA [CACACA_negctrl_site671] | 9.71 ± 0.44
ATCAGTCGGCAGGACAGTACACAGTAGCCAGGAAAT [XGTACX_site2003] | 11.1 ± 0.71
GCTTTTTATTTTTACCGTACATTATATATGTATATA [XGTACX_site808] | 10.9 ± 0.52
ATATTATTAATTTATAGTACTCATTTTTTTTTTTTT [XGTACX_site3536] | 11.2 ± 0.76
TTCCAAAATTGCATTTGTACCCAAAAAATGTATACG [XGTACX_site7680] | 11.2 ± 0.75
GTAAGTTTGAATACACGTACAAATTTATTAAAGTCC [XGTACX_site6722] | 11.3 ± 0.83
AGATATTAAAACGTTACACACATTTATATATCTTCT [CACACA_site908] | 9.74 ± 0.2
AATATATATATAGGATGTACACATAATTCAAATACA [XGTACX_site6368] | 11.5 ± 0.85

Sequence | gcPBM binding intensity (ln)
TATATATATATAAACTGTACTATTTTATGTTAAAAG [XGTACX_site3630] | 11.4 ± 0.87
ATTTAATACAAATACACACACAAATATATACATATA [CACACA_site3747] | 10.01 ± 0.035
ATGGTATATCCAAATAAACACACGTAAATACATAAA [CACACA_site1682] | 10.2 ± 0.17
ATACATTTTTGTAAAAGTACATATACATGCCCCCTT [XGTACX_site1367] | 11.6 ± 0.91
ATATATATATTTGTGTGTACATATTAATTTGTATGA [XGTACX_site4047] | 11.5 ± 0.88
AACGCGAACAATTTATAGATAACTTTTAATTATTAT [GTGCAC_negctrl_site179] | 9.865 ± 0.007
CAGCTCTTAAAAATTACACACATATACACATATATA [CACACA_site9073] | 9.91 ± 0.18
TTATTACACACATATGTGCACATATAAAAGTACACG [GTGCAC_site9581] | 11.5 ± 0.9
TTTATAATTTATATCACACATATATCTGTAATAAAT [CACACA_site5048] | 9.65 ± 0.13
ATCTCTGTAAAGATCACACATATATTTTTGTTATAT [CACACA_site5094] | 9.865 ± 0.078
TATATATTATATATATGTACATATTGTTGTGTATAT [XGTACX_site767] | 11.2 ± 0.86
CATATATGTTATATTTAACACACATATAAGGTACAT [CACACA_site8105] | 11.2 ± 0.95
ATATAATAAATATGTTGTACTATAAAAAATAGCCAT [XGTACX_site4710] | 11.2 ± 0.77
TTTCTAGTTACAAGAGTGCATAATATATAAAAATAA [GTGCAC_site9874] | 10.2 ± 0.26
TATATATATATATATACACACATTTTTAATGATAAA [CACACA_site2695] | 10.1 ± 0.37
TATAAATACAATTCACAAGAGATCATGTATCAAACC [CACACA_negctrl_site1219] | 9.87 ± 0.042
AGAAAATATTTTGGTTGTACAGGCGATTTATATGTT [XGTACX_site7253] | 11.2 ± 0.71
AAAAAAAAAAAAAAAAAAAAAAAAAAAAGAAAAAAG [GTGCAC_negctrl_site583] | 11 ± 0.44
ACTAATTACTATAAAACACACATATATATATATATA [CACACA_site2591] | 10.2 ± 0.55
TTAGTCGAATGATGTACACACATACAAAACATTTAT [CACACA_site6076] | 11.5 ± 1
GATCATTTAAAATAAGTAATATTTTTTTTACTTTTG [TGCATGCA_negctrl_site602] | 9.62 ± 0.26
TTATAAAAGAAAAAAAAAAAAAAAAAAAAAAAAAAA [CACACA_negctrl_site1006] | 9.51 ± 0.2

Sequence | gcPBM binding intensity (ln)
TTATATTTTCAGAATAGTACACATATATACATATAT [XGTACX_site2519] | 11.4 ± 0.96
AAAAATTCTTGGCGCACACACTTTAAAAATTAAAAA [CACACA_site4498] | 10.5 ± 0.53
ATCTATGTTCCTTTTACACACATAATCTTTTTTTTA [CACACA_site5468] | 10.29 ± 0.078
ATATATATATATTATACACACAAAAATATTTTGTAT [CACACA_site266] | 10.1 ± 0.33
AGCATTTTAAAAGAAAAAAAAAAAAAAAAAAAAATA [GTGCAC_negctrl_site723] | 9.59 ± 0.33
TTTTGTTTTTACGAATACTTTTTTAATTTTATTTAT [TGCATGCA_negctrl_site395] | 9.96 ± 0.4
CATGCATACTACATCTGTACACATACATTATATTTA [XGTACX_site2495] | 11.4 ± 1
CGTGGGAGCAGACACACACACACACGCATATTTATA [CACACA_site6290] | 10.16 ± 0.099
ATGGACAAAAAATATATACACACGAGGAAACCAACA [CACACA_site3726] | 10.5 ± 0.25
ATATATATAGATTGTACACACATTTATGCATATATA [CACACA_site3222] | 11.3 ± 0.83
GTAAATTATATAACAAATAAAAATGTACATATATAT [CACACA_negctrl_site408] | 11.4 ± 0.73
TATACTTTATATATTTTGTATATATATTTTTTTTAT [TGCATGCA_negctrl_site530] | 9.645 ± 0.035
TCTTGTTATTTAAATGCATGTTGATTTTAAAAAATT [TGCATGCA_site840] | 10 ± 0.12
AATAAAAAGTAATAATAACGTATAATTTATTATACT [TGCATGCA_negctrl_site414] | 9.53 ± 0.22
ACGCAATATTAACAAGTGCATTATAACACATAACAT | 10.1 ± 0.11
ATAACATTCTATGTTGCACACAAAGAGAAAAATTTA [CACACA_site9322] | 10.03 ± 0.092
AGTAGATATAATTATAGTACTTTGATGTTTTCTTTA [XGTACX_site5038] | 10.6 ± 0.32
AAAAAAAAAAAAAAAAAAAAAAAAACAATGAATTTA [GTGCAC_negctrl_site698] | 10.9 ± 0.31
TTTTTTTTTAGAAAAACATGCATGTCCTAAAAATAA [TGCATGCA_site684] | 10.7 ± 0.66
ATATGATAAATTATATGTACTTAAAATATATTATAA [XGTACX_site5904] | 11.3 ± 0.98
TGGCAAAATAGGCACACACACATATACATCTATATT [CACACA_site6626] | 10.08 ± 0.014
GTCATATATTATAATAGTACATAAATAATTGATGCC [XGTACX_site3567] | 11.1 ± 0.68
